# Reference: the supplement of paper PMC3334620
# In all, about 33,000 sequences were measured (“E-score (-0.5 to 0.5)”: median about -0.056, highest 2% from about 0.38 on). Some of the results follow.
# Molecular target: Stb4 (UniProt P50104)
# Experiment: PBM E-score (8-mer binding enrichment) (E-score (-0.5 to 0.5)); higher = stronger / more preferred TF binding; most listed sequences are background and not binding sites
# Details: protein concentration: 200 nM; construct: GST-DNA-binding domain
# Outline: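 E-scores (a modified Wilcoxon-Mann-Whitney statistic) were assigned by the Universal PBM Analysis Suite to every ungapped eight-base word pooled with its reverse complement. The input came from universal all-10-mer Agilent arrays made double-stranded by primer extension and probed with GST-tagged yeast transcription factors at about 100-200 nM. Fluorescent anti-GST detected bound protein, and masliner normalised the scans.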
row,Sequence,PBM E-score
1,ATAGCCAA,0.0207
2,AATGAGTA,0.102
3,ATTAAATG,0.208
4,CTGTACCC,0.207
5,GGTAAAGA,0.163
6,CGTCTGAA,-0.221
7,ACAGCACG,0.0954
8,CGCGTCGA,0.0608
9,AAAGGCAC,0.0606
10,ACGTACGT,-0.465
11,ACTACTCA,-0.203
12,CGGCCTAG,-0.0479
13,CTAAAACC,0.046
14,ACCGAGCG,0.38
15,ATCATTTC,0.135
16,ATACAACG,-0.0297
17,AGTACAAG,-0.134
18,AACACCAA,-0.25
19,ATAGACTC,-0.233
20,CAACCTTA,-0.149
21,CTTAATTA,-0.157
22,CAGACTAC,-0.157
23,CAAGCCAA,-0.0961
24,GAGTAGCA,0.0461
25,ACATACGA,-0.208

row,Sequence,PBM E-score
1,ACATCGTA,0.0349
2,AGTACTGG,-0.198
3,TCGTTCCA,-0.124
4,ATGTTTGC,-0.107
5,ATTAAAGA,-0.135
6,GTGATGGA,-0.00596
7,TCCGTGCA,0.208
8,AGGCCTGG,-0.235
9,ACACAGCG,-0.099
10,TAGTCCAA,-0.0883
11,CGTTCCAC,-0.00385
12,ATCCATTC,0.0957
13,AAAGCGAA,-0.114
14,CATTGGGG,-0.216
15,CAGGGTTC,-0.0742
16,AGTCTAGG,-0.209
17,AGGGGCAA,-0.0863
18,AAGTGATG,0.039
19,AGTGTTGA,0.0066
20,GTAAGACA,-0.166
21,TATTTAAA,0.0539
22,AGTTCCAA,0.012
23,AATTGCAC,-0.0455
24,CGTACTGC,-0.165
25,GGTATTAC,0.168

row,Sequence,PBM E-score
1,GGGACCGA,0.265
2,AAACAAGG,-0.0788
3,AATACCCA,-0.00809
4,AACTCGTC,-0.217
5,ACTTCTCG,0.116
6,AAGACTGT,-0.195
7,GGATTCGA,-0.0152
8,AAGTTGAG,-0.0828
9,CAGGTCGA,-0.162
10,ACGAAACC,-0.0179
11,GCACCGAA,0.241
12,AATTCGAG,-0.242
13,AGAAAAAA,0.082
14,ATCCTTGG,0.0257
15,CCATTTAA,-0.147
16,CACTCAGC,-0.00258
17,CAGGGGGC,-0.159
18,AGCGGTAG,-0.176
19,GCCCGCGA,0.0176
20,AAAATCGG,0.265
21,ACCTGTAT,-0.202
22,GTCCTGGA,-0.228
23,CCGCGTTC,0.28
24,GACGATGA,-0.043
25,CGCGATGC,-0.0772

row,Sequence,PBM E-score
1,CATATCGG,0.258
2,AGTTCCCA,-0.0388
3,AGGGTCCG,0.208
4,ACAGGTGA,-0.166
5,CTTCTCCA,-0.262
6,CAAATATA,-0.0664
7,CAGGACGC,-0.21
8,TGTGTCAA,-0.161
9,CAGTACCG,0.183
10,TAAGCAAA,-0.185
11,GTTTGAGA,-0.186
12,GCAACGGA,0.245
13,GACGTTTA,-0.24
14,CTGTCTAC,-0.145
15,GAAAAATC,0.0101
16,AGGATGTA,-0.177
17,ACTGGCCG,-0.0328
18,CGTAGAAC,-0.0804
19,ATAGAAGC,-0.0927
20,ACAATCTC,0.12
21,AACTCACC,-0.0932
22,ATTCATCA,-0.0146
23,ACAGCCAG,-0.233
24,ACTCTTCC,0.141
25,CGATGGAA,0.0298

row,Sequence,PBM E-score
1,AACACTGG,-0.15
2,ACGCGGCC,-0.113
3,CGGAAGGC,0.373
4,GAAGACCA,0.00946
5,ATAAGAGC,-0.0564
6,GAGTAGAA,-0.14
7,AGGTAGTA,-0.0405
8,ACGCAGCG,-0.223
9,CAGCCCGA,0.216
10,GTATGTCA,-0.0522
11,GAGCAGCC,0.11
12,AGCCGTAA,0.0616
13,CCTGCTAA,-0.132
14,GCGCACCA,-0.0337
15,TCTAAACA,-0.0967
16,AAGAGGAT,-0.162
17,ACAAGATC,-0.0852
18,CTATGCAG,-0.145
19,AAAATTGT,0.131
20,ATGCGACG,0.0175
21,AGTCATTC,-0.0977
22,AGGAACAC,0.0248
23,CTTACGAA,-0.074
24,GAGGGCAA,0.00071
25,TACTGGCA,-0.0509

row,Sequence,PBM E-score
1,AACCTACA,-0.0052
2,CACCTAGA,-0.269
3,TACTCGGA,0.409
4,CCCGGGAG,0.307
5,AATAGTGC,0.0314
6,CAGTACAC,-0.118
7,CTACATCC,0.171
8,CATAAGTC,-0.129
9,CCCCAACC,-0.134
10,GGACGTCC,-0.0734
11,GACGTGCC,0.0166
12,TCCCTGCA,-0.0715
13,GTTGAGAA,-0.248
14,ATTAACGG,0.13
15,ATGGCCTA,-0.195
16,AGGGGGTC,-0.178
17,GACCAATC,-0.0806
18,ACTGCTCT,-0.182
19,GTACTGCA,-0.042
20,GTGTCAGA,-0.111
21,AGCGGTGA,-0.0416
22,AGTAATAA,-0.214
23,ACTAAGAG,-0.134
24,AGGCCGTA,-0.023
25,CGCATGCA,0.076

row,Sequence,PBM E-score
1,GAAATGCC,0.161
2,AGAAAGAC,0.1
3,CAGAACAG,-0.14
4,GATTTCGA,0.0573
5,ATTAAAAT,0.057
6,TAATAAGA,-0.175
7,CTTATTCA,-0.044
8,CGGGACTC,0.263
9,ATCCCTGG,-0.212
10,AATAACTA,-0.15
11,CGTCGAGA,-0.246
12,CGGAGTAA,0.283
13,GACGTGGC,-0.187
14,AGAAATAT,0.079
15,CAAGTAGG,-0.142
16,GACCTCTA,-0.0855
17,AAACACGC,-0.0563
18,ACGTCGCG,-0.0235
19,GTCATAAA,-0.117
20,GACGATCA,-0.234
21,AACATCGC,-0.123
22,GCTTTGGA,0.0278
